Measured values published in ChEMBL document CHEMBL1201862, “PubChem BioAssay data set” (2004).
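The compound was tested at five concentrations on cells cultured in 96-well plates, with a 48-hour exposure period. Here, GI50 denotes the concentration required for 50% inhibition of growth.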 The source made the active and inactive calls. No stated cut-off is given here; in the data, active = GI50 up to about 1.1 µM and inactive = higher.

Each compound was assayed on NCI-H322M (assay: NCI tumour cell line growth inhibition, 48 h).

Row | SMILES | GI50
1 | O=C1C=C(N2CCCC2)C(=O)c2c(O)ccc(O)c21 | inactive: > 10 µM
2 | Oc1c(Br)cc(CN(Cc2cc(Br)c(O)c(Br)c2)C2CCCCC2)cc1Br | inactive: > 100 µM
3 | C=C1[C@@H](C)[C@H]2[C@H](Cc3ccccc3)NC(=O)[C@]23OC(=O)/C=C/[C@H](O)CCC[C@@H](C)C/C=C/[C@H]3[C@@H]1O | inactive: 29.4 µM
4 | NN(CC(=O)O)CC(=O)O | inactive: > 100 µM
5 | COc1ccc(OC)c2c(C)ccnc12 | inactive: 40.4 µM
6 | CC(C)CNP(=O)(NCC(C)C)Oc1ccc(CC(NC(=O)OCc2ccccc2)C(=O)OCc2ccccc2)cc1 (stereo unspecified) | inactive: 13.4 µM
7 | CC1=CCC([C@@](C)(O)CCCC(C)(C)N=C=S)CC1 (stereo partly specified) | inactive: 17.7 µM
8 | O=C1CCCC[C@H]1[C@H]1CCC[C@@H]([C@H]2CCCCC2=O)C1=O | inactive: > 100 µM
9 | O=C1CCCCC1CN1CCCC1 (stereo unspecified) | inactive: > 100 µM
10 | Oc1cc(Br)cc2cccnc12 | inactive: 7.73 µM
11 | O=C1c2cnccc2Cc2cccc3c2N1c1ccccc1S3 | inactive: 22.6 µM
12 | Cc1cc2c(cc1C)C(=O)/C(=N/Nc1ccc(F)cc1)CCO2 | inactive: > 100 µM
13 | CCOc1ccc(NC(=O)CC2Sc3ccccc3NC2=O)cc1 (stereo unspecified) | inactive: > 100 µM
14 | CN(C)c1ccc(/C=C/c2ccnc3ccccc23)cc1 | inactive: > 100 µM
15 | O=C(O)c1nc2ccc(C(F)(F)F)cc2nc1Nc1ccc(F)cc1 | inactive: 25 µM
16 | COc1cccc(C=C2N=C(c3ccccc3)N(n3c(-c4ccccc4)nc4ccccc4c3=O)C2=O)c1 | inactive: > 100 µM
17 | OC(c1ccccc1)C(F)(F)c1nc2ccccc2o1 (stereo unspecified) | inactive: > 100 µM
18 | CCOC(=O)c1nnsc1NN=C(C)C | inactive: > 100 µM
19 | CCN(CC)c1ccc2cc(-c3csc(-c4ccc(N(C)C)cc4)n3)c(=O)oc2c1 | inactive: > 100 µM
20 | NC(Cc1cccnn1)C(=O)O (stereo unspecified) | inactive: > 100 µM
21 | COC(=O)C1CCC(=O)N1C(c1ccc(OC)cc1)c1ccc2c(c1)OCO2 (stereo unspecified) | inactive: 57.1 µM
22 | CC(=O)OCC1CCC(=C2C(=O)OC(C)(C)OC2=O)N1 (stereo unspecified) | inactive: > 100 µM
23 | CC1=C(/C=C/C(C)=C/C=C/C(C)=C/C=C/C=C(C)/C=C/C=C(C)/C=C/C=C(C)/C=C/C=C(\C)C(=O)O)C(C)(C)CCC1 | inactive: > 100 µM

Row | SMILES | GI50
24 | CC(C)(C)OC(=O)N1CCC23CCCC2C(=O)CC=C13 (stereo unspecified) | inactive: > 100 µM
25 | CCn1c(=O)c2c3ccc(O)cc3[nH]c2c2ccc(O)cc21 | inactive: 73.1 µM
26 | COc1nc(NC2OC(COC(C)=O)C(OC(C)=O)C(OC(C)=O)C2OC(C)=O)c(/N=C/C=N/c2c(NC3OC(COC(C)=O)C(OC(C)=O)C(OC(C)=O)C3OC(C)=O)nc(OC)n(C)c2=O)c(=O)n1C (stereo unspecified) | inactive: > 100 µM
27 | COc1ccc(O)c(/C(C)=N/NC(=S)N(C)C)c1 | inactive: 22.1 µM
28 | CN(C)C(=O)C(F)(F)C(c1ccc(C(F)(F)F)cc1)C1C(=O)N(C)C(=O)N(C)C1=O (stereo unspecified) | inactive: > 100 µM
29 | CC(=N\c1ccncc1)/C(C)=N/c1ccncc1 | inactive: > 100 µM
30 | O=C(Cn1c(=O)ccn(C2OC(CO)C(O)C2F)c1=O)c1ccc(F)cc1 (stereo unspecified) | inactive: > 100 µM
31 | Cc1ccc(/N=N/N(C)C(C)C(O)Cc2ccccc2)cc1 (stereo unspecified) | inactive: 52.8 µM
32 | O=[N+]([O-])C(=C1NCCN1)/C(Cl)=C(/Cl)N1CCOCC1 | inactive: > 100 µM
33 | C=CC1C(OC2OC(CO)C(O)C(O)C2O)OC=C(C(=O)OC)C1CC1CC(=O)CC(CCc2ccc(O)cc2)O1 (stereo unspecified) | inactive: > 100 µM
34 | C[N+]12C=CC=C1C(N1CCCC1)c1sc(-c3ccc(Cl)cc3)cc12 (stereo unspecified) | inactive: 30.7 µM
35 | Cc1cccc2c1CC(C1OC(=O)c3c(C)cccc31)C2=O (stereo unspecified) | inactive: > 100 µM
36 | CC1(C)OCC(C(O)C2OC(C)(C)OC2C=O)O1 (stereo unspecified) | inactive: > 100 µM
37 | COc1cc(C2SCC(=O)N2c2ccc(NC(C)=O)cc2)cc(OC)c1OC (stereo unspecified) | inactive: > 100 µM
38 | C#C[C@]1(O)CC[C@H]2[C@@H]3CCc4cc(OC(=O)c5cccc6cc7ccccc7nc56)ccc4[C@H]3CC[C@@]21C | inactive: 26.5 µM
39 | Cc1ccc2[nH]c(=O)c(-c3cnc(O)nn3)c(O)c2c1 | inactive: > 100 µM
40 | C=C1OC(c2ccccc2NC)=NC12CCCCC2 | inactive: > 100 µM
41 | NCCNC(=O)CN(CC(=O)O)C1CCCCC1N(CC(=O)O)CC(=O)O (stereo unspecified) | inactive: > 100 µM
42 | COc1ccc(-c2c(-c3ccccc3)c(C)nc3nc(SC)nc(SC)c23)cc1OC | inactive: 17.5 µM
43 | COC(=O)C1OC(O[C@H]2CC[C@]3(C)[C@H]4CC=C5[C@@H]6CC(C)(C)CC[C@]6(C(=O)OC)[C@H](O)C[C@@]5(C)[C@]4(C)CC[C@H]3C2(C)C)C(O)C(O)C1O (stereo partly specified) | inactive: 5.41 µM
44 | CN[C@@H](C)[C@H](NC)c1ccccc1 | inactive: > 100 µM
45 | CN(CCO)c1nc2c(c(=O)[nH]1)CNCC2 | inactive: > 100 µM
46 | COC(=N)C(C)C | inactive: > 100 µM

Row | SMILES | GI50
47 | CN(C)C[C@H]1CC[C@@H](CN(C)C)C1=O | inactive: > 50 µM
48 | O=[N+]([O-])c1ccc(C[P+]2(c3ccccc3)CCCCC2)cc1.[O-][Cl+3]([O-])([O-])[O-] | inactive: > 100 µM
49 | O=C(O)C1(Cc2ccccc2)Cc2cc3c(cc2C1)CCC3 | inactive: > 100 µM
50 | COc1ccc(NC(=O)C(=O)Cc2ccc([N+](=O)[O-])c([N+](=O)[O-])c2CC(=O)C(=O)Nc2ccc(OC)cc2OC)c(OC)c1 | inactive: > 100 µM
51 | CC12c3c4cccc3Oc3cc(N)cc(c31)Oc1cc(N)cc(c12)O4 | inactive: 5.6 µM
52 | O=C(c1ccccc1)c1ccc(N2C(=O)/C(=C/c3cccc([N+](=O)[O-])c3)N=C2c2ccccc2)c(N2C(=O)/C(=C/c3cccc([N+](=O)[O-])c3)N=C2c2ccccc2)c1 | inactive: > 100 µM
53 | C=CSCCC(N)C(=O)O (stereo unspecified) | inactive: > 100 µM
54 | CCCCCCCc1ccc(-c2nnc(/N=N/c3ccc(OCCCCC)cc3)s2)s1 | inactive: > 100 µM
55 | CC(=O)NCc1nc(C#N)c(N)o1 | inactive: > 100 µM
56 | CC(=O)Nc1ccc(S(=O)(=O)N/N=C/c2cc(I)cc([N+](=O)[O-])c2O)cc1 | inactive: > 100 µM
57 | CCN(CC)C(=O)CCCCCCCCC1CO1 (stereo unspecified) | inactive: > 100 µM
58 | COc1nc(=O)n(C2CC(N=[N+]=[N-])C(CO)O2)cc1C (stereo unspecified) | inactive: > 100 µM
59 | CCn1c(SCC(=O)N/N=C2\SCC(=O)N2c2ccc(C)cc2)nc2ccccc2c1=O | inactive: 15.1 µM
60 | CCSC1=CC(=O)c2nc3ccccc3c3ccnc1c23 | inactive: 11 µM
61 | O=c1[nH]/c(=C/c2cccs2)c(=O)[nH]/c1=C/c1ccc(OCc2ccccc2)cn1 | active: 0.0871 µM
62 | CCCCCCCCCCCCCCCCCC(=O)OCC(COC1OC(COP(=O)(O)O)C(O)C(O)C1O)OC(=O)CCCCCCCCCCCCCCCCC (stereo unspecified) | inactive: 7.11 µM
63 | c1ccc(N2N=C3N(c4ccccc4)C2N3c2ccccc2)cc1 | inactive: 37.6 µM
64 | COc1cc2c(cc1OC)[C@H]1C(COC(=O)c3ccccc3)CS/C(=N/c3ccccc3)N1CC2 (stereo partly specified) | inactive: > 100 µM
65 | c1ccc2c(CC3NCCN3)cccc2c1 | inactive: > 100 µM
66 | O=C(CCCN1CCc2[nH]c3cc(F)ccc3c2C1)c1ccc(F)cc1 | inactive: 12.7 µM
67 | COc1ccc(N2C(=O)CC(Cl)C2=O)cc1 (stereo unspecified) | inactive: > 100 µM
68 | FC(F)(F)c1cnc(N/N=C(/c2ccccc2)c2ccccn2)c(Cl)c1 | inactive: 3.61 µM
69 | O=[N+]([O-])C1(C2([N+](=O)[O-])CCCC2)CCCC1 | inactive: > 100 µM

Row | SMILES | GI50
70 | COc1ccc2nc3ccc(OC)cc3c(S(=O)(=O)Cc3ccc([N+](=O)[O-])cc3)c2c1 | inactive: > 100 µM
71 | O=C1CCCC(=O)N1n1c(Cc2ccccc2)n[nH]c1=O | inactive: > 100 µM
72 | O=C(N/C(=C/c1ccc(Cl)cc1Cl)c1nc2ccccc2s1)c1ccccc1 | inactive: 17.5 µM
73 | C/C(CCn1[nH]c(=O)ccc1=O)=N\NC(=O)C(N)=O | inactive: > 100 µM
74 | C=CC/C(C(=O)OC)=C(/C(=O)OC)N(CCC)CCC | inactive: > 100 µM
75 | Cc1c/c(=N\c2ccc3c(c2)c(N)cc(C)[n+]3C)nc(N)n1C | inactive: > 100 µM
76 | COc1ccc(/C=N/NS(=O)(=O)c2ccc(/C=C3\NC(=O)N(C)C3=O)cc2)cc1 | inactive: 69.5 µM
77 | COC(=O)/C=C\C(C#N)(C#N)/N=C/c1cc(Br)cs1 | inactive: 15.5 µM
78 | CC12C(=CC(=O)CC1SCCS(=O)(=O)O)C(C#N)=C(N)N2c1ccc(Cl)c(Cl)c1 (stereo unspecified) | inactive: > 100 µM
79 | C=C(C)/C=C/C(O)[C@](C)(O)[C@H]1[C@H](O)C[C@@]2(C)[C@@H]3CCc4c(cc(OC5OC(CO)C(O)C(O)C5O)c(O)c4C)C3(C)C(=O)C[C@]12C (stereo partly specified) | inactive: > 100 µM
80 | c1ccc(C(=NNc2nc3ccccc3o2)c2ccccn2)nc1 | active: 0.0738 µM
81 | C[C@]12CCCC(=O)C1(O)C[C@H](C(=O)O)CC2 (stereo partly specified) | inactive: > 100 µM
82 | CC(=O)OC12c3ccccc3-c3ccccc3C1C(C(=O)O)C2(Cl)C(=O)O (stereo unspecified) | inactive: > 10 µM
83 | COc1cc(C2c3cc4c(cc3[C@@H](NCCN3CCOCC3)C3COC(=O)[C@H]23)OCO4)cc(OC)c1O (stereo partly specified) | inactive: 7.06 µM
84 | O=C1c2scc(-c3ccc(Cl)cc3)c2-n2cccc21 | inactive: > 100 µM
85 | COc1c(Br)cc(/C=C(\C#N)c2ccccn2)cc1Br | inactive: > 100 µM
86 | COc1ccc(C2(c3ccc(OC)cc3)OC(=O)c3cccc4cccc2c34)cc1 | active: 0.107 µM
87 | O=c1c(C(c2cccnc2)c2c(O)oc3cc(O)ccc3c2=O)c(O)oc2cc(O)ccc12 | inactive: > 100 µM
88 | CC(=O)O[C@H]1CC2C(C3CCC(C(C)CCC(=O)O)[C@]31C)[C@H](OC(C)=O)C[C@@H]1CC3(CC[C@]21C)OOC1(CC[C@]2(C)C4C[C@H](OC(C)=O)[C@]5(C)C(C(C)CCC(=O)O)CCC5C4[C@H](OC(C)=O)C[C@@H]2C1)OO3 (stereo partly specified) | inactive: 3.66 µM
89 | Oc1ccc(/C=C/c2ccc3cccc(O)c3n2)cc1O | inactive: 7.01 µM
90 | CCCCCCCCCCCCCCCCCCOCC(C[N+]1(C)CCC(O)CC1)OCC (stereo unspecified) | inactive: 11.1 µM
91 | COc1cc(CCc2cccnc2)cc(OC)c1OC | inactive: > 100 µM
